Measured values reported in PubChem BioAssay AID1347165 (National Center for Advancing Translational Sciences (NCATS), 2019).
The whole screen tested about 220,000 compounds, of which about 5,700 (2.6%) were called active. The inconclusive results got no clear call from the source; some entries with a clear call stand among them for comparison. The call rests on the fitted dose curve; in most records, active means well fitted inhibition curve with a large enough effect; inconclusive means small, poorly fitted or top-dose-only effect; inactive means no such curve, though single readings can be large or run the other way. Potencies beside an inconclusive call are fits to weak or partial responses and may not hold up.

target: Lysine-specific demethylase 5B (Homo sapiens) (UniProt Q9UGL1); experiment: Primary screen for KDM5B Histone Demethylases FDH-coupled qHTS; details: FDH-coupled NADH fluorescence (FDH is formaldehyde dehydrogenase); activity change, negative = inhibition: at 57.7 µM (top of the series) unless noted; further: nearly all actives have a fitted effect of over 70% in size; on activity change, negative = inhibition: 0% is about no effect
UniProt Q9UGL1, sequence (Q9UGL1 whole entry, looked up): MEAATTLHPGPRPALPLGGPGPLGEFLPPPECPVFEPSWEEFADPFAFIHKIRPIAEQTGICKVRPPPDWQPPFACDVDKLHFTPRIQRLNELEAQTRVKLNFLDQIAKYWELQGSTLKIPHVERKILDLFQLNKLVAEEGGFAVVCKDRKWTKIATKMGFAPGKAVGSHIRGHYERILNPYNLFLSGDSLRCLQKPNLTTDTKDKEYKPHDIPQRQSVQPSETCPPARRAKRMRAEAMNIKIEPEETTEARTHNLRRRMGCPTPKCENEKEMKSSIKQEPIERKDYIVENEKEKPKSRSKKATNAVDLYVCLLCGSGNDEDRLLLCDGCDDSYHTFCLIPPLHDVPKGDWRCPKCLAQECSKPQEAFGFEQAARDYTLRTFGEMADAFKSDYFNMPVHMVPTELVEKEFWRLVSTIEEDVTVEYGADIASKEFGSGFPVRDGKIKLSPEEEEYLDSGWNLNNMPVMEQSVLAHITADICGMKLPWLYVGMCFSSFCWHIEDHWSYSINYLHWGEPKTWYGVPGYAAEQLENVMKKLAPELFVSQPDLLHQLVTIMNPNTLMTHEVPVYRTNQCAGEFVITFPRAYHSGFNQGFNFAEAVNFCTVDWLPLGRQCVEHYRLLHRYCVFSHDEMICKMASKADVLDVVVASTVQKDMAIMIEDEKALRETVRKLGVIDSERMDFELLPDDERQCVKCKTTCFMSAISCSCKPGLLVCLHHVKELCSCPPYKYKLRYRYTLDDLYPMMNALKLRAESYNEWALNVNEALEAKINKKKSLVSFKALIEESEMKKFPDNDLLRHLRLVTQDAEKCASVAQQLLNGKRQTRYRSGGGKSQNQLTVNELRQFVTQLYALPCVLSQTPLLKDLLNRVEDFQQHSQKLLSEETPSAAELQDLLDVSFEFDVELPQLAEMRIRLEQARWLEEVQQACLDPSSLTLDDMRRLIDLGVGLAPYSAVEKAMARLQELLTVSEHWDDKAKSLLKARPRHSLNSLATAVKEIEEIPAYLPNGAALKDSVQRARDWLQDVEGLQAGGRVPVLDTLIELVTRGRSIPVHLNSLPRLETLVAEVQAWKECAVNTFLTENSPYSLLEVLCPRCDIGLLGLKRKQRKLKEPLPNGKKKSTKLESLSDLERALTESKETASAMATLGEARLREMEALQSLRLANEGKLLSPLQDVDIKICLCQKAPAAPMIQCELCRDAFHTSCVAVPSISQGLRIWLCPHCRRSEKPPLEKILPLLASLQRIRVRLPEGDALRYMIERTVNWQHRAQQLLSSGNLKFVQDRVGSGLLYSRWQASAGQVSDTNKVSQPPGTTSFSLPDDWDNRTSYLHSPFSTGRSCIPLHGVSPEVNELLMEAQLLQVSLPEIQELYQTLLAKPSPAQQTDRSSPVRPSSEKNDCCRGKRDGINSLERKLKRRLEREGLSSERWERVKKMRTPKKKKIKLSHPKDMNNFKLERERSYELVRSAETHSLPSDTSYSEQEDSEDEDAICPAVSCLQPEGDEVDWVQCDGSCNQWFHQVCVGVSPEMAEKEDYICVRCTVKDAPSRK
In short: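 KDM5BΔAP (200 nM final) in 50 mM HEPES pH 7.5, 0.01% Tween-20 was preincubated 10 min at RT with compound over a concentration range. Substrate mix (H3K4me3 12.5 µM, α-KG 25 µM, Fe²⁺, ascorbate, NAD⁺, FDH) was added, and NADH fluorescence change over 30 min gave dose-response curves.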
Potency means the concentration at half of the fitted maximal effect; tags describe the fitted curve by direction and shape.

| SMILES | Potency | activity change, negative = inhibition |
| --- | --- | --- |
| COC(=O)C1=C(C)N=C2SC=C(CC(=O)NCC3CCCO3)N2C1c1ccccc1F (stereo unspecified) | inconclusive: 22.4 µM [inhibitor, single point] | – |
| O=C1Nc2ccccc2CNC12CCN(CC1CCOCC1)CC2 | inconclusive: 56.2 µM [inhibitor, partial curve] | – |
| CCOc1ccc(OCC(O)CN2CCN(c3ccc(C(F)(F)F)cn3)CC2)cc1 (stereo unspecified) | – | inactive: -4.62% |
| CCOC(=O)N1CCN(C(=O)CN(c2ccc(F)cc2)S(C)(=O)=O)CC1 | – | inactive: 17.4% |
| Cc1nc(-c2ccc(F)cc2)n(Cc2nc(-c3ccccc3)oc2C)c(=O)c1CCO | – | inactive: -15.5% |
| CCCOc1ccc(NC(=O)COc2cccc(C)c2C)c2cccnc12 | inconclusive: 1.78 µM [inhibitor, partial curve, poor fit] | – |
| Cc1cccc(N2CCN(Cc3nnc(-c4ccccc4C)o3)CC2C)c1 (stereo unspecified) | inconclusive: 22.4 µM [inhibitor, partial curve, poor fit] | – |
| O=C(CSc1nc(C(F)(F)F)nc2ccccc12)Nc1ccc(O)cc1 | – | inactive: 8.31% |
| CCn1nc(C)c(CNC(=O)c2ccc(N3CC4CC(C3)[C@H]3CCCC(=O)N3C4)nc2)c1C (stereo partly specified) | inconclusive: 22.4 µM [inhibitor, single point] | – |
| COc1ccc(-c2cc(N3CCC(NC(=O)c4cc(C)ccc4C)CC3)n[nH]2)cc1 | – | inactive: 6.53% |
| N#Cc1nc(-c2ccco2)oc1N1CCC(C(=O)NC2CCCCCCC2)CC1 | inconclusive: 1.78 µM [inhibitor, partial curve, poor fit] | – |
| Cc1cccc2ncc(C(=O)N3CC[C@H](CO)[C@@H](O)C3)c(=O)n12 | active: 22.4 µM | – |
| CC(C)C(NC(=O)c1ccccc1Cl)C(C)C | – | inactive: 1.07% |
| O=C(Cc1ccc(F)cc1)N1CCC2(CC1)N=C(c1ccc(Cl)cc1)NO2 | inconclusive: 22.4 µM [inhibitor, single point] | – |
| CCC1c2ccsc2CCN1C(=O)CCNC(=O)c1ccc(F)cc1F (stereo unspecified) | – | inactive: 4.9% |
| O=C(O)c1ccc2c(c1)c1c3n2CCNC3CCC1 (stereo unspecified) | inconclusive: 39.8 µM [inhibitor, partial curve, poor fit] | – |
| COc1ccccc1NC(=O)N1c2ccccc2Sc2ccccc21 | inconclusive: 15.8 µM [inhibitor, partial curve, poor fit] | – |
| COc1ccc(OC)c(-n2nnc3c(sc4nc(C)c(Br)c(C)c43)c2=O)c1 | – | inconclusive: -38% [inhibitor] |
| CCCNC(=O)NNC(=O)C(CC)c1ccccc1 (stereo unspecified) | – | inactive: 12.2% |
| CC(CO)Nc1ncnc2c1CN(C1CCCNCC1)C(=O)CN2C (stereo unspecified) | inconclusive: 44.7 µM [inhibitor, partial curve] | – |
| COc1ccc(CNC(=O)[C@@H]2Cc3nc[nH]c3CN2C(=O)NC2CCCCC2)cc1 | active: 31.6 µM | – |
| COCC1CN(C)CC12CCN(C(=O)CN1CCCCCC1)CC2 (stereo unspecified) | inconclusive: 20 µM [inhibitor, partial curve, poor fit] | – |
| Clc1cc2c(nn1)Nc1ccccc1S2 | – | inactive: -4.68% |

| SMILES | Potency | activity change, negative = inhibition |
| --- | --- | --- |
| OC1(CN2CCCCC2)CCN(Cc2cnn(-c3ccccc3Cl)c2)C1 (stereo unspecified) | inconclusive: 14.1 µM [inhibitor, partial curve, poor fit] | – |
| CCOC(=O)c1ccc(NC(=O)Cn2nc(SC)c(S(=O)(=O)c3ccc(Cl)cc3)c2N)cc1 | inconclusive: 1.41 µM [inhibitor, full curve, poor fit] | – |
| CC(C)c1noc(-c2cccn3c(CNC(=O)c4cccnc4)nnc23)n1 | inconclusive: 25.1 µM [inhibitor, partial curve, poor fit] | – |
| COc1cc(C)ccc1S(=O)(=O)NCC1CNCCOC1 (stereo unspecified) | – | inactive: 47.8% |
| O=C(Cc1cccc(Cl)c1)N1CCc2nc(C3CC3)nc(-c3ccc(Cl)cc3)c2C1 | – | inactive: -29.6% |
| COc1ccc(-c2nc3cc(NC(=O)Cc4ccc(Cl)cc4)ccc3o2)cc1OC | inconclusive: 17.8 µM [inhibitor, partial curve, poor fit] | – |
| O=C(Nc1ccccc1)N1Cc2[nH]cnc2C[C@H]1c1nc(-c2ccccc2)no1 | inconclusive: 44.7 µM [inhibitor, partial curve, poor fit] | – |
| O=C(Cc1c[nH]c2ncc(-c3ccccc3)cc12)N1CCCC1 | inconclusive: 39.8 µM [inhibitor, single point] | – |
| Cc1ccc(Cl)cc1Nc1nc2ccccc2c2nncn12 | inconclusive: 31.6 µM [inhibitor, partial curve, poor fit] | – |
| Cc1nc(CN2CCN(c3nccc(-c4cccnc4)n3)CC2)cs1 | inconclusive: 15.8 µM [inhibitor, partial curve] | – |
| O=C(Cc1c[nH]c2ccccc12)NCCOc1ccc(Cl)cc1 | – | inactive: 6.31% |
| O=C(CC1N=C2c3ccccc3N=C(SCc3ccccc3F)N2C1=O)NCCc1ccccc1 (stereo unspecified) | inconclusive: 31.6 µM [inhibitor, partial curve, poor fit] | – |
| COc1cccc2cc(C(=O)NCc3ccc(C)cc3)c(=O)oc12 | inconclusive: 17.8 µM [inhibitor, partial curve, poor fit] | – |
| N#CCSc1nnc(-c2ccccc2F)n1-c1ccccc1 | – | inactive: 7.47% |
| O=C(c1n[nH]c2ccccc12)N1CCC(c2nc(C3CCOCC3)no2)CC1 | inconclusive: 31.6 µM [inhibitor, partial curve, poor fit] | – |
| Cc1ccc(C)c(COC(=O)Cn2cnc3c2c(=O)n(C)c(=O)n3C)c1 | – | inactive: 9.17% |
| NC(c1ccc(F)cc1)c1ccccc1I (stereo unspecified) | – | inactive: 8.72% |
| CCc1ccc(CNc2nc3nc(CC)cc(=O)n3[nH]2)cc1 | – | inactive: -28.5% |
| O=C(NCCc1ccccc1F)C1CN(c2cccc(Cl)c2)C(=O)N1 (stereo unspecified) | – | inactive: 10.6% |
| Cc1ccc(Cn2c(=O)n(Cc3ccco3)c(=O)c3sc4ccccc4c32)cc1 | inconclusive: 1.26 µM [inhibitor, full curve, poor fit] | – |
| CCCCc1nn2c(=O)cc(COC(=O)c3cccc(NC(=O)c4ccccc4F)c3)nc2s1 | – | inactive: 16.7% |
| CC1(C(=O)NCCCn2ccnc2)CCc2cnc(NCc3ccccc3)nc21 (stereo unspecified) | active: 39.8 µM | – |
| COc1cc(-c2onc(C)c2C(=O)NC2Cc3ccccc3C2)cc(OC)c1OC | active: 31.6 µM | – |
